# PubChem BioAssay AID1240 (Sanford-Burnham Center for Chemical Genomics, 2008)
# Out of some 50,000 compounds screened, about 800 (1.6%) showed an effect of 50% or more. The list shows a part of the results.
# Target: Bcl-2-like protein 10 (Homo sapiens) (UniProt Q9HD36)
# Test: TR3 peptide-Bcl-B binding displacers, biochemical primary FP assay, phenotype converters (AID 1240);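 also: 0% = Bcl-B with tracer peptide and DMSO and 100% = tracer peptide lacking Bcl-B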
# Conditions: GST-Bcl-B / FITC-TR3 peptide fluorescence polarization; stronger effect = higher value; compound at 3.75 mg/L
# Sequence of UniProt Q9HD36 (Q9HD36 whole entry, looked up): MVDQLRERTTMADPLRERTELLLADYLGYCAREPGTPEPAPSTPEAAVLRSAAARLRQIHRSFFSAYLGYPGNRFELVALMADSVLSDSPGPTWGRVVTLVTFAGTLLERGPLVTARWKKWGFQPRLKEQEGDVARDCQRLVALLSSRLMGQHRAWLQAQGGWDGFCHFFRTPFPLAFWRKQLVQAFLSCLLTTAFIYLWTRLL
row,SMILES,displacement
1,CCOc1ccc(CSc2ncnc(SCc3ccc(OCC)cc3)c2N)cc1,-2.1%
2,Cc1ccc(S(=O)(=O)N2c3ccccc3C(Nc3ccccc3)CC2C)cc1 (centres undefined),0.9%
3,COc1ccc(/C=C2\C=C(c3ccc(Cl)cc3)OC2=O)cc1C,0.9%
4,CC1=C(C#N)c2nc(N)c(C#N)c(C)c2/C1=C\c1cc([N+](=O)[O-])ccc1Cl,0.6%
5,O=C1NN(c2ccccc2)C(=O)/C1=C/c1ccc(-c2cccc(C(=O)O)c2)o1,15.5%
6,CCOc1ccccc1/C=N/NC(=O)CC1C(=O)NN=C1C (centres undefined),4.6%
7,CCCC(C)NC(=O)c1ccc(Cl)cc1 (centres undefined),3.6%
8,COc1ccc(-n2c(O)c(C=Nc3ccccc3OC)c(=O)[nH]c2=O)cc1,-10.3%
9,C=C(C)C1CC=C(C)C(=NNC(=O)c2cccc([N+](=O)[O-])c2)C1 (centres undefined),0.4%
10,COc1ccccc1NC(=O)C(=O)N/N=C/c1cccc(OC)c1O,-4.1%
11,COc1ccc(N(CC(=O)NC(C)(C)C)S(=O)(=O)c2ccc(C)c([N+](=O)[O-])c2)cc1,1.9%
12,CC(C)(C)c1csc(NC(=O)C(c2ccccc2)c2ccccc2)n1,-2.6%
13,CN1C[N+]([O-])=C(c2ccccc2)C1(C)C,8.7%
14,Cc1ccc(N2C(=O)NC(=O)/C(=C\c3cc(Br)ccc3OCC(=O)O)C2=O)cc1,-7.8%
15,COc1cc(C(O)c2nc3ccccc3n2C)cc(OC)c1OC (centres undefined),2.1%
16,Cc1ccc(OCC(=O)O/N=C(\N)c2ccncc2)c(C)c1,2.5%
17,CCCC(=O)C1=C(O)C(C(=O)OC)C(C)(C)C/C1=N\c1nc2ccccc2[nH]1 (centres undefined),3.2%
18,CCOC(=O)c1c(NC(=S)NCc2ccccc2)sc2c1CC(C)(CC)OC2 (centres undefined),-7.8%
19,Cc1ccc(CC2S/C(=N\N=C\c3ccc(N(C)C)cc3)NC2=O)cc1 (centres undefined),-2.2%
20,O=C(N/N=C\c1ccc(Cl)cc1Cl)c1cccc2cc[nH]c12,1%
21,O=C(c1ccccc1)N1CCN(C2CCN(Cc3ccccc3)CC2)CC1,-1.6%
22,Cc1nc(N)sc1-c1csc(Nc2ccccn2)n1,-8.6%
23,COc1ccccc1NC(=O)CC1S/C(=N\N=C2/CCCc3ccccc32)NC1=O (centres undefined),-3.9%

row,SMILES,displacement
1,NNc1nc(-c2ccccc2)c2cc(Br)ccc2n1,6.9%
2,O=C(N/N=C/c1ccccc1O)C(=O)N1CCCCCC1,-14.6%
3,CC(=O)Oc1ccc(NC(=O)CC2Nc3cc(C)c(C)cc3NC2=O)cc1 (centres undefined),-8%
4,CC(C)c1ccccc1OCCCN1CCCC1,3.3%
5,Cc1ccnc(NS(=O)(=O)c2ccc3ccccc3c2)c1,-8%
6,Cc1onc(-c2ccccc2)c1C(=O)Nc1ccc(O)c(C(=O)O)c1,10.5%
7,CCOC(=O)c1ccc(N2NC(=O)/C(=C/c3ccc(-c4ccc(Cl)c(C(=O)O)c4)o3)C2=O)cc1,10.5%
8,CCN(CC)S(=O)(=O)c1ccc(NC(=S)Nc2ccc(F)cc2)cc1,-4.5%
9,C#CCOC(=O)/C(=C/c1ccc(F)cc1)NC(C)=O,-8.4%
10,COc1ccc(CNc2ccc(Br)cc2C(=O)O)c(OC)c1,-13%
11,Cc1ccc2cc(S(=O)(=O)N=Nc3c(O)[nH]c4ccc([N+](=O)[O-])cc34)ccc2c1,15%
12,CNS(=O)(=O)c1ccccc1C(=O)NNC1=NS(=O)(=O)c2ccccc21,7.2%
13,Cc1nn(C(=O)c2cccnc2)c(C)c1Sc1ccc(Br)cc1,-13.2%
14,CC(Oc1ccc(Cl)cc1Cl)C(=O)Nc1ccccn1 (centres undefined),-7.1%
15,COc1ccc(OC)c(NC(=O)c2ccc(CN(c3ccc(C)c(C)c3)S(C)(=O)=O)cc2)c1,1.9%
16,O=C(Cc1ccc(Cl)cc1)NCc1ccccn1,11.4%
17,CCOC(=O)c1[nH]cnc1C(=O)Nc1ccccc1,-1.3%
18,Cc1ccc2nsnc2c1NC(=O)c1ccc(-c2ccc([N+](=O)[O-])cc2)o1,16.6%
19,CN(C)c1ccc(C(C#N)(C#N)C2C(=O)c3ccccc3C2=O)cc1,12%
20,Cc1nc(C)n(C)c(=O)c1-c1ccccc1,3.9%
21,CCOC(=O)N1CCN(C(=S)Nc2ccccc2)CC1,-1.9%
22,COc1ccc(C(=O)c2ccc(Cl)cc2)c2ccccc12,13.9%
23,CCN1C(=O)/C(=C\c2cn(CCOc3ccccc3)c3ccccc23)SC1=S,20.9%

row,SMILES,displacement
1,CC1=C(C#N)C(=O)NC(=O)/C1=C\c1ccc(-c2ccc(Cl)c(Cl)c2)o1,-1%
2,NC1=NC(=O)/C(=C/c2ccc(OCc3cccc4ccccc34)cc2)S1,-26.6%
3,N#CCNC(=O)c1ccccc1[N+](=O)[O-],-14.7%
4,O=C(Nc1cc(Oc2cccnc2)cc([N+](=O)[O-])c1)c1cc2nc(-c3ccco3)cc(C(F)(F)F)n2n1,38.5%
5,CC(=O)CCc1oc2ccc(Br)cc2c1-c1ccc(C)o1,-10.4%
6,CCCn1c(NC(=O)c2ccc(Cl)cc2)nc2ccccc21,14.6%
7,COc1ccc(CSc2nc3ccc(Br)cc3c(=O)n2-c2ccccc2)cc1,6.2%
8,CCc1c(C)sc(NC(=O)c2ccc(Cl)cc2Cl)c1C#N,-11.8%
9,COc1ccc(-c2csc(-n3[nH]c(C)c(N=Nc4c(C)cccc4[N+](=O)[O-])c3=O)n2)cc1,-29.1%
10,Cc1ccc(NC(=O)C(=O)NCc2ccc3c(c2)OCO3)cc1,12.8%
11,COc1ccc(NC(=O)c2ccc(NC(=O)C(C)(C)C)cc2)cc1,14.3%
12,O=C(Oc1ccc(Cl)cc1)c1c(F)cccc1F,16.4%
13,N/C(Cc1ccc(Cl)cc1)=N\OC(=O)c1ccc(Cl)c([N+](=O)[O-])c1,-6.4%
14,COc1ccc(NC(=O)C(C)Sc2ccc(Cl)cc2)cc1 (centres undefined),-4.2%
15,C=CCc1cccc(/C=N/NC(=O)c2cc(-c3ccc(OC)cc3)n[nH]2)c1O,-23.1%
16,Cc1cc(C)c2nc3s/c(=C\c4ccc(N(C)C)cc4)c(=O)n3c2c1,2.1%
17,COc1ccc(-c2nnc(SCc3ccccc3[N+](=O)[O-])n2-c2ccccc2)cc1,-17.4%
18,CCc1ccc2oc(-c3cccc(NC(=O)c4ccco4)c3)nc2c1,2.6%
19,Cc1nnc(SCC(=O)N2c3ccccc3-c3c(ssc3=S)C2(C)C)s1,3.1%
20,CCC(Oc1ccccc1)C(=O)Nc1cccc2c1C(=O)c1ccccc1C2=O (centres undefined),9.4%
21,O=C(CN(c1ccc(F)cc1)S(=O)(=O)c1ccccc1)Nc1ccc(Br)cc1,-0.7%
22,CCc1ccccc1NC(=O)c1c(NC(=O)C(C)(C)C)sc2c1CCC2,-12.4%
23,O=C(NCC1CCCO1)C(=O)Nc1nccs1 (centres undefined),10.4%
